The campaign covered roughly 330,000 compounds. About 7,700 (2.3%) were called active. Another 26% or so got no clear call; they are omitted. Calls come from the whole dose curve; as a rule, active = well fitted inhibition curve with a large enough effect; inconclusive = small, poorly fitted or top-dose-only effect, or effect the other way; inactive = flat fitted curve, though single readings scatter. The list shows a part of the results, in another mix than the full data.
% is set by controls: 0 for no effect and ±100 for the full control effect; potency is the fitted concentration of half-maximal effect.

This assay is described as follows: qHTS screen for small molecules that inhibit ELG1-dependent DNA repair in human embryonic kidney (HEK293T) cells expressing luciferase-tagged ELG1. Note: nearly all actives have a fitted effect of over 55% in size. As to conditions: HEK293T ELG1-luciferase reporter, luminescence, 16 h, DNA damage induced by 5-fluorouridine; series mostly up to 46.1 µM; activity change, negative = inhibition: at the top concentration. From the text:
NIH Molecular Libraries Probe Production Network [MLPCN] NIH Chemical Genomics Center [NCGC] MLPCN Grant: 1 R03 MH092164-01 Assay Provider: Kyungjae Myung, NHGRI, NIH Keywords: MLPCN, qHTS, NCGC, genotoxicity, cancer Assay Overview: Cancer cells divide rapidly compared to normal cells in the body. During cell division, cancer cells need to duplicate their genome by DNA replication. The failure of genome duplication leads to cancer cells' death. Therefore, inhibitors of DNA replication could specifically kill cancer cells. Based on this concept, many chemotherapeutic agents were developed and have been used to treat cancer patients. However, there are a limited number of agents available in the clinical setting, and some of those that do exist have low efficacy and severe side effects. Therefore, if we can find the compounds that effectively block DNA replication either by directly damaging DNA or by inhibiting other cellular mechanisms, the options for cancer treatment will be broadened. With this in mind, we developed a quantitative high-throughput ELG1-luciferase reporter gene assay. Small molecules that specifically block ELG1 function in response to DNA damage can be identified by monitoring the suppression of luciferase activity. Since ELG1 defines a pathway for repairing DNA damage, agents blocking ELG1 function can be used to sensitize cancer cells to chemotherapeutic agents whose mechanism of action involves the induction of DNA damage.
Assay Protocol Summary: For genotoxicity screening, 2,000 cells in 4 uL/well were dispensed into white, solid-bottom 1536-well plates using a solenoid-based dispenser. Following transfer of 1 uL 5-Fluorouridine and 23 nL compound or DMSO vehicle by a pin tool, the plates were incubated 16 hr at 37 °C and 5% CO2. 5 ul ONE-Glo (Promega) was then added to each plate and following a 30 min incubation at room temperature, luciferase activity was quantified on a ViewLux CCD-based plate reader.
(In general: In qHTS, concentration-response curves come from the screen itself.)
`OCC[C@H]1C[C@@H](O)[C@H](O)[C@@]2(CCCc3ccccc3O2)O1`: the “activity change, negative = inhibition” value is inactive: 0.722%. The same measure, in the same setting: for `OCC[C@H]1C[C@@H](O)[C@H](O)[C@@]2(Cc3ccccc3CO2)O1` the value was inactive: 7.84%. On the same count and under the same terms, the value for `CC(C)(C)SC(=O)CC1NS(=O)(=O)OC2CCCCC12` (configuration not stated) was inactive: -2.8%; that for `C=C[C@]1(C)C=C2CCC3[C@](C)(CCC[C@@]3(C)C(=O)O)C2CC1` (some centres not stated) was inactive: 0.945%. With `Cn1c(=O)c(C(=O)COC(=O)c2cc(-c3ccco3)nc3ccccc23)c(N)n(CC2CC2)c1=O`, the Potency is active: 6.51 µM.

As to `C[C@@H]1CC[C@]2(O[C@@H](CCO)C[C@H](O)[C@H]2O)O1`, the “activity change, negative = inhibition” value was inactive: 9.4%. With `O=C(CSc1nc(-c2ccccc2)cs1)NC(=O)NCc1ccco1`, the Potency is active: 18.4 µM. As for `C[C@H](CCC(=O)NCC(=O)O)[C@H]1CC[C@H]2C3[C@H](O)C[C@@H]4C[C@H](O)CC[C@]4(C)[C@H]3C[C@H](O)[C@]12C` (some centres not stated), the “activity change, negative = inhibition” value was inactive: 15.2%. Same read-out and setting: for `OCC[C@@H]1C[C@H](O)[C@@H](O)[C@@]2(CCc3ccccc3O2)O1` the value was inactive: 10.3%. On the same count and under the same terms, for `CCOC(=O)/C(C#N)=C1/C(=O)N(Cc2ccccc2)c2ccccc21` the value was inactive: -16.2%; for `CCOC(=O)[C@@H]1[C@H]2COc3cc(OC)ccc3[C@H]2N2C(=O)N(c3cccc(F)c3)C(=O)[C@@]12C`, inactive: -17.8%; for `COc1ccc(N=C/C=C2/C=C(c3ccccc3)OC(C)(C)O2)cc1`, inactive: -17.7%.

Regarding `COc1cccc(-n2nc(-c3ccnn3-c3ccc(C)cc3)c(=O)n(C)c2=O)c1`, the Potency was active: 20.6 µM.

For `CCOC(=O)[C@@H]1[C@H]2COc3ccccc3[C@@H]2N2C(=O)N(c3ccc(C)cc3)C(=O)[C@@]12C`, the “activity change, negative = inhibition” value is inactive: 16.3%. The same measure, in the same setting: the value for `CC(C)[C@H]1C(=O)Nc2ccccc2N1C(=O)N[C@@H](Cc1ccccc1)C(=O)N[C@@H](C(=O)O)c1ccccc1` was inactive: 24.5%; that for `NC(=O)C1=C[C@H](c2coc3ccccc3c2=O)C[C@H](OCCCCO)O1` was inactive: 0%; that for `CCC(=O)O[C@]1(C(=O)CCl)[C@@H](C)C[C@H]2[C@@H]3CCC4=CC(=O)C=C[C@]4(C)[C@@]3(F)[C@@H](O)C[C@@]21C` was inactive: 4.49%.

With `OCC[C@H]1C[C@H](O)[C@@H](O)[C@]2(CCCc3ccccc3O2)O1`, the “activity change, negative = inhibition” value was inactive: 0.344%. The same measure, in the same setting: for `O=C(C[C@@H]1C/C=C\C[C@@H](Cc2ccc(F)cc2)C(=O)OC[C@@H]2CCCN2C1=O)NCCO` the value was inactive: 15.2%; for `CC(=O)C[C@H](O)CC(=O)[C@H]1OC(=O)[C@@H](C)C/C=C\Cc2ccccc21`, inactive: 7.23%. On to `COCCN(Cc1ccccc1)C(=O)c1cccc(S(=O)(=O)N2CCN(c3ccccc3)CC2)c1`, for which the Potency was active: 14.6 µM.

In the case of `CC(=O)C[C@@H](O)CC(=O)[C@H]1OC(=O)[C@H](C)C/C=C\Cc2ccccc21`, the “activity change, negative = inhibition” value is inactive: -1.85%. Take `CC[C@]12CCCN3CCc4c(n(c5ccccc45)[C@](O)(C(=O)OC)C1)[C@@H]32`: the “activity change, negative = inhibition” value is inactive: -3.14%. Still for that read-out and setting: for `C/C(=C\C(=O)N1CCc2ccccc21)C(=O)O` the value was inactive: 2.19%. For the compound `O=C(Nc1ccccn1)c1ccc(CN(c2ccccc2)S(=O)(=O)c2ccccc2)cc1`, the Potency is active: 18.3 µM.

Regarding `COC(=O)[C@H](CC(C)C)NS(=O)(=O)N(Cc1ccccc1)[C@@H](CC(C)C)C(=O)OC`, the “activity change, negative = inhibition” value was inactive: -13.3%.

With `O=C(O)/C=C/C(=O)Nc1ccc(OCc2ccccc2)cc1`, the “activity change, negative = inhibition” value is inactive: 13.5%. Consider `CCN(CC)CCOC(=O)c1ccc(NC(=O)CCCN2C(=O)/C(=C/c3cccs3)SC2=S)cc1`, for which the “activity change, negative = inhibition” value was inactive: 12%. On the same count and under the same terms, the value for `OCC[C@@H]1C[C@@H](O)[C@H](O)[C@@]2(CCc3ccccc3CO2)O1` was inactive: 22.5%; that for `C[C@@H]1C[C@H]2[C@@H]3CCC4=CC(=O)C=C[C@]4(C)[C@@]3(F)[C@@H](O)C[C@]2(C)[C@@]1(O)C(=O)CO` was inactive: 15.6%. In the case of `CCOc1ccc(-c2nc(CSCC(=O)NCc3ccco3)c(C)o2)cc1`, the Potency is active: 7.31 µM. `O=C(C[C@@H]1C/C=C\CCC(=O)OC[C@@H]2CCCN2C1=O)N[C@H](CO)Cc1ccccc1`: the “activity change, negative = inhibition” value was inactive: 17.7%. Still for that read-out and setting: for `CC(/C=C/C1(O)C(C)CC(O)CC1(C)C)OC1OC(CO)C(O)C(O)C1O` (configuration not stated) the value was inactive: -0.413%.

For `C[C@@]12C(=O)N(c3ccc(Br)cc3)C(=O)N1[C@@H]1c3ccccc3OC[C@@H]1[C@H]2c1ccccc1`, the “activity change, negative = inhibition” value was inactive: -2.42%. In the case of `O=C(C1=C[C@@H](C2CCCCC2)C[C@@H](OCCCCO)O1)N1CCN(Cc2ccc3c(c2)OCO3)CC1`, the “activity change, negative = inhibition” value is inactive: -15.4%. Still for that read-out and setting: for `Cc1cc(=O)oc2cc(OS(C)(=O)=O)ccc12` the value was inactive: 2.77%; for `CCn1c(C)cc(/C=C2\NC(=O)N(CC(=O)Nc3cccc(C)c3)C2=O)c1C`, inactive: -1.62%.

The record behind these values is PubChem BioAssay AID504467 (National Center for Advancing Translational Sciences (NCATS), 2011).
